# Whole data set: some 81,000 sequences, median “one-hybrid fitness for binding parS DNA” near -0.17, cut for the highest 2% near 0.51. Some of the results follow.
# B1: Caulobacter ParB omega fusion; a variant is named by its letters at X, in order, B8GW30 (parent)
# chain: MESVVVGEPGMSEGRRGLGRGLSALLGEVDAAPAQAPGEQLGGSREAPIEILQRNPDQPRRTFREEDLEDLSNSIREKGVLQPILVRPSPDTAGEYQIVAGERAWRAAQRAGLKTVPIMVRELDDLAVLEIGIIENVQRADLNVLEEALSYKVLMEKFERTQENIAQTIGKSXSHVANXMRLLXLPDEVQSYLVSGELTAXHARAIAAAADPVALAKQIIEGGLSVRETEALARKAPNLSAGKSKGGRPPRVKDTDTQALESDLSSVLGLDVSIDHRGSTGTLTITYATLEQLDDLCNRLTRGI
# Variants of: B1
# Assay: one-hybrid fitness for binding parS DNA (scaled: cognate 1, non-cognate 0); higher = stronger binding
# Settings: with parS DNA site
# Method in brief: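 In E. coli USO, a HIS3 reporter with its site placed 19 bp from the promoter was used to select Caulobacter ParB variants randomised at four specificity codons. Growth lasted 48 hours at 37°C on histidine-free M9 containing 0.1 mM IPTG and 5 mM 3-AT. Fitness was taken as the log change in variant-to-wild-type read ratio from Illumina sequencing of pre- and post-selection plasmids, rescaled between the non-cognate and cognate sites.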
row,Variant,one-hybrid fitness for binding parS DNA
1,RCIY,0.448
2,MYMW,≤ 0.2
3,HFNA,≤ 0.2
4,DLIR,≤ 0.2
5,FLGA,≤ 0.2
6,SCSR,≤ 0.2
7,SRRR,≤ 0.2
8,KNQR,≤ 0.2
9,HQKI,≤ 0.2
10,NRTT,≤ 0.2
11,LSDC,≤ 0.2
12,NPIV,≤ 0.2
13,HAFR,≤ 0.2
14,VIMI,≤ 0.2
15,ARNL,≤ 0.2
16,KAFV,≤ 0.2
17,QHWY,≤ 0.2
18,MPQH,≤ 0.2
19,EDTG,≤ 0.2
20,TTEP,≤ 0.2
21,QVGT,≤ 0.2
22,RWHW,≤ 0.2
23,AHAR,≤ 0.2
24,NGHK,≤ 0.2
25,ARIG,≤ 0.2

row,Variant,one-hybrid fitness for binding parS DNA
1,APET,≤ 0.2
2,KRHR,≤ 0.2
3,WVMS,≤ 0.2
4,TTWI,≤ 0.2
5,FHFL,≤ 0.2
6,GTMC,≤ 0.2
7,QEVD,≤ 0.2
8,FCFS,≤ 0.2
9,TQDG,≤ 0.2
10,HVPE,≤ 0.2
11,KVHT,≤ 0.2
12,LFER,≤ 0.2
13,REVG,≤ 0.2
14,DAND,≤ 0.2
15,ACRV,≤ 0.2
16,TFHQ,≤ 0.2
17,GWIP,≤ 0.2
18,CKAR,≤ 0.2
19,YCKT,≤ 0.2
20,GAQC,≤ 0.2
21,GLTF,≤ 0.2
22,RICW,≤ 0.2
23,RHMR,≤ 0.2
24,YPWT,≤ 0.2
25,RMGG,0.993

row,Variant,one-hybrid fitness for binding parS DNA
1,KLLL,≤ 0.2
2,MQIT,0.223
3,EEKR,≤ 0.2
4,RVVC,0.914
5,TKRM,≤ 0.2
6,RIPK,≤ 0.2
7,QDAY,≤ 0.2
8,SFHS,≤ 0.2
9,RSKA,0.716
10,VRGS,≤ 0.2
11,QNYG,≤ 0.2
12,LIIH,≤ 0.2
13,CNPG,≤ 0.2
14,PPKT,≤ 0.2
15,PHPT,≤ 0.2
16,GPWR,≤ 0.2
17,DSLV,≤ 0.2
18,DKSS,≤ 0.2
19,GHPD,≤ 0.2
20,KRQI,≤ 0.2
21,FTKS,≤ 0.2
22,DDWY,≤ 0.2
23,RQRS,0.918
24,RIYM,0.377
25,NWPF,≤ 0.2

row,Variant,one-hybrid fitness for binding parS DNA
1,NLTL,≤ 0.2
2,VFHC,≤ 0.2
3,ASLT,≤ 0.2
4,RWEE,≤ 0.2
5,IANI,≤ 0.2
6,EHGS,≤ 0.2
7,AAFV,≤ 0.2
8,ESTR,≤ 0.2
9,FSTV,≤ 0.2
10,LAPN,≤ 0.2
11,ENAL,≤ 0.2
12,MQLS,≤ 0.2
13,NVSE,≤ 0.2
14,YQTG,≤ 0.2
15,LSIS,≤ 0.2
16,WKIM,≤ 0.2
17,AGFA,≤ 0.2
18,YNMT,≤ 0.2
19,WISV,≤ 0.2
20,RMHY,0.465
21,DNPF,≤ 0.2
22,TQKL,≤ 0.2
23,RQRL,≤ 0.2
24,QQQA,≤ 0.2
25,TMSE,≤ 0.2

row,Variant,one-hybrid fitness for binding parS DNA
1,KRFV,≤ 0.2
2,NVNV,≤ 0.2
3,APAQ,≤ 0.2
4,HWTT,≤ 0.2
5,WACY,≤ 0.2
6,CHFT,≤ 0.2
7,LHES,≤ 0.2
8,WRMS,≤ 0.2
9,GNPS,≤ 0.2
10,LYSV,≤ 0.2
11,SYAV,≤ 0.2
12,PVNC,≤ 0.2
13,QYFG,0.2
14,RPHC,≤ 0.2
15,NFHR,≤ 0.2
16,VCLT,≤ 0.2
17,FCHG,≤ 0.2
18,ISWR,≤ 0.2
19,KLDM,≤ 0.2
20,RIDP,≤ 0.2
21,PAER,≤ 0.2
22,TIKI,≤ 0.2
23,IPHQ,≤ 0.2
24,DSDM,≤ 0.2
25,RHIP,≤ 0.2

row,Variant,one-hybrid fitness for binding parS DNA
1,WKNG,≤ 0.2
2,TDAS,≤ 0.2
3,YDIS,≤ 0.2
4,LKRL,≤ 0.2
5,FVTL,≤ 0.2
6,GPEP,≤ 0.2
7,CCRR,≤ 0.2
8,RSVL,≤ 0.2
9,QIQK,≤ 0.2
10,HYMT,≤ 0.2
11,RLVH,0.223
12,RNNS,0.969
13,WPTS,≤ 0.2
14,GQYE,≤ 0.2
15,DYER,≤ 0.2
16,IGEW,≤ 0.2
17,INRN,≤ 0.2
18,CLQP,≤ 0.2
19,TYYT,≤ 0.2
20,LAWH,≤ 0.2
21,ESAK,≤ 0.2
22,ESHG,≤ 0.2
23,RLGK,≤ 0.2
24,TNNI,≤ 0.2
25,FKID,≤ 0.2

row,Variant,one-hybrid fitness for binding parS DNA
1,QFCR,≤ 0.2
2,CRIS,≤ 0.2
3,DIYT,≤ 0.2
4,SNPV,≤ 0.2
5,SMSF,≤ 0.2
6,CRYA,≤ 0.2
7,PELC,≤ 0.2
8,RQAR,≤ 0.2
9,ALHK,≤ 0.2
10,VWSY,≤ 0.2
11,PDTA,≤ 0.2
12,TLLT,≤ 0.2
13,GSWK,≤ 0.2
14,FPMN,≤ 0.2
15,AIDM,≤ 0.2
16,DRAS,≤ 0.2
17,NLCT,≤ 0.2
18,LHWH,≤ 0.2
19,NNHN,≤ 0.2
20,RRDY,0.289
21,TWFG,≤ 0.2
22,ATCI,≤ 0.2
23,QQVC,≤ 0.2
24,ACNF,≤ 0.2
25,SSCY,≤ 0.2

row,Variant,one-hybrid fitness for binding parS DNA
1,QQAG,≤ 0.2
2,ELES,≤ 0.2
3,LSCK,≤ 0.2
4,NAEH,≤ 0.2
5,IPHR,≤ 0.2
6,RCDN,0.376
7,RYDK,≤ 0.2
8,KLHR,≤ 0.2
9,YYGG,≤ 0.2
10,SKND,≤ 0.2
11,MATS,≤ 0.2
12,YVIP,0.312
13,MFHG,≤ 0.2
14,EYGS,≤ 0.2
15,QEYD,≤ 0.2
16,DAVD,≤ 0.2
17,TYYG,≤ 0.2
18,PMAY,≤ 0.2
19,HSAR,≤ 0.2
20,IMVQ,≤ 0.2

# Reference: a collection of fitness landscapes (doi:10.1016/j.celrep.2020.107928)
